# From PubChem BioAssay AID504466 (National Center for Advancing Translational Sciences (NCATS), 2011)
# Out of some 330,000 compounds screened, about 4,200 (1.3%) were called active. Inconclusive results, whose numbers are uncertain, are shown with a selection of clear calls. The call rests on the fitted dose curve; in most records, active means well fitted activation curve with a large enough effect; inconclusive means small, poorly fitted or top-dose-only effect; inactive means no such curve, though single readings can be large or run the other way. Potencies beside an inconclusive call are fits to weak or partial responses and may not hold up.
# Test: qHTS screen for small molecules that induce genotoxicity in human embryonic kidney (HEK293T) cells expressing luciferase-tagged ELG1; further: nearly all actives have a fitted effect of over 60% in size
# Details: HEK293T ELG1-luciferase reporter, luminescence, 16 h; series mostly up to 46 µM
# Procedure, shortened: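 After overnight (16 hr) compound treatment at 37 °C, ELG1-luciferase HEK293T cells were lysed with ONE-Glo; luminescence quantified 30 min later at room temperature.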
# Potency means the concentration at half of the fitted maximal effect; tags describe the fitted curve by direction and shape.
row,Structure (SMILES),Potency
1,CCn1nnnc1NC(=O)c1cccc(OC)c1,"inconclusive: 11.6 µM [activator, partial curve, poor fit]"
2,CCCc1cc(=O)[nH]c(SCC(=O)Nc2ccc([N+](=O)[O-])cc2C#N)n1,inactive
3,COc1ccc(C(=O)Cn2c(=N)n(C)c3ccccc32)cc1,"inconclusive: 3.66 µM [activator, partial curve, poor fit]"
4,Cc1nc2cc(NC(=O)CS(=O)(=O)c3ccccc3)ccc2s1,"inconclusive: 32.6 µM [activator, partial curve, poor fit]"
5,Cc1noc(C)c1/C=N/Nc1ccc2ccccc2n1,"inconclusive: 10.3 µM [activator, partial curve]"
6,COc1ccccc1-c1cc(C(=O)N2CCCCC2)no1,active: 3.66 µM
7,Cc1cccc(/C(N)=N/OC(=O)c2cccnc2)c1,"inconclusive: 8.2 µM [activator, partial curve]"
8,COc1ccc(NC(=O)COc2ccc(/C=N/n3c(C)nnc3C)cc2OC)cc1,"inconclusive: 16.4 µM [activator, partial curve]"
9,CCOc1ccc(NC(=O)c2ccccc2OC)cc1,"inconclusive: 18.4 µM [activator, partial curve, poor fit]"
10,O=C(Nc1ccnn1C1CCN(C(=O)c2ccc(F)c(Cl)c2)CC1)C1CC1,inactive
11,Cc1cccc2c1-c1sc(C(=O)Nc3nccs3)cc1CO2,"inconclusive: 2.06 µM [activator, full curve]"
12,O=C(O)CCC(=O)N1CCN(S(=O)(=O)c2cccs2)CC1,inactive
13,N#C/C(=C\Nc1ccc2cn[nH]c2c1)c1nc(-c2ccc(Cl)cc2)cs1,"inconclusive: 32.6 µM [activator, partial curve, poor fit]"
14,O=C(NCc1cccs1)C1CCCN1C(=O)Nc1ccccc1Cl (stereo not given),inactive
15,COC(=O)c1cccnc1NC(=S)NNC(=O)c1ccccc1,"inconclusive: 13 µM [activator, partial curve, poor fit]"
16,Cc1ccccc1Nc1nc(N)nc(CSc2nnnn2-c2ccccc2)n1,"inconclusive: 23.1 µM [activator, partial curve, poor fit]"
17,O=C(OCc1nc2ccccc2c(=O)[nH]1)c1cccs1,"inconclusive: 29.1 µM [activator, partial curve, poor fit]"
18,c1ccc(-c2cc(-c3ccccc3)[nH]n2)cc1,"inconclusive: 10.3 µM [activator, partial curve]"
19,CC(C)OC(=O)c1sc2nc(-c3ccccc3)ccc2c1N,"inconclusive: 0.164 µM [activator, full curve]"
20,O=C(O)Cc1ccc2ocnc2c1,inactive
21,Cc1cc(NC(=O)c2ccccc2Cl)no1,"inconclusive: 13 µM [activator, partial curve, poor fit]"
22,COc1ccc(C(=O)Nc2nc(C)c(C)s2)cc1OC,"inconclusive: 20.6 µM [activator, single point]"
23,CSc1ncccc1C(=O)Nc1cccc(S(=O)(=O)N2CCOCC2)c1,inactive
24,Cc1cc(SCC(=O)c2cccc([N+](=O)[O-])c2)nc(=O)[nH]1,"inconclusive: 16.4 µM [activator, partial curve]"

row,Structure (SMILES),Potency
1,O=[N+]([O-])c1cc([N+](=O)[O-])c(Oc2cncc(Cl)c2)cc1NC1CCCCCCC1,"inconclusive: 32.6 µM [activator, partial curve, poor fit]"
2,CCC(C)NC(=O)c1ccc2c(c1)S(=O)(=O)c1ccccc1C2=O (stereo not given),"inconclusive: 1.16 µM [activator, single point]"
3,CC(C)c1ccc(OCC(=O)Nc2ccc(OC(F)(F)F)cc2)cc1,inactive
4,O=C(N/N=C/c1ccccc1O)C1SCCCS1,"inconclusive: 32.6 µM [activator, partial curve, poor fit]"
5,CC1CC1C(=O)Nc1nc(-c2ccccc2)cs1 (stereo not given),"inconclusive: 18.4 µM [activator, single point]"
6,Cc1cc(SCC(=O)OCC(=O)N(CCC#N)c2ccccc2)nc2ccccc12,inactive
7,CCOC(=O)c1sc(NC(=O)c2cc3c(s2)CCC(C)C3)nc1C (stereo not given),active: 10.3 µM
8,O=C(NCCSc1ccccn1)c1ccc(Cl)cc1,"inconclusive: 3.26 µM [activator, partial curve, poor fit]"
9,O=c1[nH]c(/C=C/c2ccc(OC(F)F)cc2)nc2c1cnn2-c1ccccc1,"inconclusive: 29.1 µM [activator, single point]"
10,COc1ccc(OCc2cc(C(=O)N3CCCCCC3)no2)c(Cl)c1,"inconclusive: 11.6 µM [activator, partial curve]"
11,CC(=O)Nc1ccc(NC(=O)CSc2ccc(-c3ccc(-n4ccnc4)cc3)nn2)cc1,inactive
12,CC(C)N(C(=O)[C@H]1C[C@H](CC(=O)NCCC2=CCCCC2)C(=O)N2CCc3c([nH]c4cc(-c5ccco5)ccc34)[C@]12C)C(C)C,inactive
13,O=C(COC(=O)c1ccccc1O)Nc1ccc(OC(F)F)cc1,"inconclusive: 20.6 µM [activator, partial curve]"
14,COc1ccc(NC(=O)c2ccc(OC(F)F)cc2)cc1Cl,"inconclusive: 20.6 µM [activator, partial curve]"
15,COC(=O)c1ccc2nc(Nc3nc4ccc(F)cc4s3)sc2c1,"inconclusive: 0.326 µM [activator, full curve]"
16,Cc1ccnc(N2CCCC(C(=O)Nc3ccc(C)c(C)c3)C2)n1 (stereo not given),inactive
17,O=C(CSc1ncn[nH]1)c1ccc2c(c1)OCO2,"inconclusive: 32.6 µM [activator, partial curve, poor fit]"
18,COc1ccc(C=C(c2nc3ccccc3s2)c2nc3ccccc3s2)cc1O,"inconclusive: 18.4 µM [activator, single point]"
19,O=[N+]([O-])c1cccc(NNS(=O)(=O)c2ccccc2F)c1,"inconclusive: 5.01 µM [activator, partial curve, poor fit]"
20,CC(C)(C)c1nnc2sc(SCC(=O)c3cccs3)nn2c1=O,"inconclusive: 23.1 µM [activator, partial curve, poor fit]"
21,O=C(CCN1CCN(c2ccccc2)CC1)N/N=C/c1ccccc1O,"inconclusive: 29.1 µM [activator, single point]"
22,COc1cc(Nc2c3ccccc3nc3ccccc23)cc(OC)c1OC,"inconclusive: 18.3 µM [activator, partial curve, poor fit]"
23,COC(=O)c1c(-c2ccccc2)csc1NC1=NS(=O)(=O)c2ccccc21,"inconclusive: 0.92 µM [activator, full curve]"
24,CC1(C)Oc2ccc3ccc(=O)oc3c2/C(=C/NNC(N)=O)C1=O,"inconclusive: 13 µM [activator, partial curve, poor fit]"

row,Structure (SMILES),Potency
1,Cc1cccc(/C(N)=N/OC(=O)CCCc2ccccc2)c1,"inconclusive: 23.1 µM [activator, single point]"
2,O=C(Cc1ccccc1)Nc1ccc(CN2CCOCC2)cc1,active: 11.6 µM
3,O=c1[nH]c(Nc2nc3ccccc3o2)nc2c1CCCC2,"inconclusive: 0.366 µM [activator, full curve, poor fit]"
4,O=C(c1ccc(CSc2ccccc2)cc1)N1CCCCCC1,"inconclusive: 29.1 µM [activator, single point]"
5,Cc1cccc(/C=C\c2nc3ccccc3c(=O)[nH]2)c1,active: 10.3 µM
6,COc1ccc(OCC(=O)N/N=C2\CCc3ccccc32)cc1,"inconclusive: 29.1 µM [activator, partial curve, poor fit]"
7,CC(=O)c1cccc(Nc2nc(-c3cccc([N+](=O)[O-])c3)cs2)c1,active: 1.46 µM
8,COc1ccc(CNC(=O)c2nnn(CC(=O)Nc3cc(C)cc(C)c3)c2N)cc1,"inconclusive: 29.1 µM [activator, single point]"
9,CCC1Oc2ccc(C)cc2N(CC(=O)NCc2cccs2)C1=O (stereo not given),inactive
10,Cn1cnnc1SCC(=O)Nc1ccc(OC(F)F)cc1,inactive
11,O=C(CSc1nccn1Cc1ccco1)Nc1ccccc1F,"inconclusive: 0.58 µM [activator, single point]"
12,COc1cc2cc(C(c3nnnn3C3CCCC3)N(C)C3CCCCC3)c(=O)[nH]c2cc1OC (stereo not given),inactive
13,O=C(Nc1nccs1)c1nc[nH]c1C(=O)NCc1ccccc1,inactive
14,COc1cccc(C(=O)COC(=O)c2ccc(NC(C)=O)cc2)c1,inactive
15,CCOC(=O)c1ccc(NC(=O)Nc2ncccc2C)cc1,"inconclusive: 18.3 µM [activator, partial curve]"
16,O=[N+]([O-])c1cccc(COc2ncnc3cc([N+](=O)[O-])ccc23)c1,inactive
17,O=S1(=O)Nc2c(ccc3cccnc23)-c2ccccc21,"inconclusive: 9.2 µM [activator, partial curve, poor fit]"
18,Cc1cc(C)c2c(N)c(-c3nc4ccccc4[nH]3)sc2n1,"inconclusive: 25.9 µM [activator, partial curve, poor fit]"
19,Cc1ccc(C(=O)NCC(=O)OCc2csc(-c3ccccc3)n2)cc1,"inconclusive: 29.1 µM [activator, partial curve, poor fit]"
20,Cc1cccc(-n2cnc(C(=O)NC3CCCCCC3)c2)n1,"inconclusive: 16.4 µM [activator, partial curve]"
21,Cc1ccc(CSc2ccc(-c3ccco3)nn2)cc1,"inconclusive: 7.31 µM [activator, partial curve]"
22,Cc1onc(-c2ccccc2)c1C(=O)Nc1nc(-c2ccccc2)cs1,"inconclusive: 4.61 µM [activator, full curve, poor fit]"
